{"source": "the supplement of paper PMC6135742", "note": "Structures can show the parent of a compound that is named as a salt. ± gives the standard deviation of the averaged measurements. Whole data set: some 2,600 compounds, median “MBP+ mature oligodendrocyte number relative to DMSO vehicle control” near -0.34, cut for the highest 2% near 13. The list shows a part of the results.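 Further: 10 µM single dose with 3-day oligodendrocyte differentiation.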"}
{"tested_on": "jimpy (Plp1 jimpy) mouse iPSC-derived oligodendrocyte progenitor cells", "experiment": "MBP+ mature oligodendrocyte number relative to DMSO vehicle control (SDs above negative control mean); higher = more surviving jimpy oligodendrocytes (rescue)", "conditions": "10 µM; 3 days"}
{"compound": "O=c1[nH]c2ccccc2n1C1CCN(CCCC(c2ccc(F)cc2)c2ccc(F)cc2)CC1", "note": "[Pimozide]", "MBP+ mature oligodendrocyte number": "< -3.97"}
{"compound": "O=c1ccc2[nH]cc(C3=CCNCC3)c2[nH]1", "MBP+ mature oligodendrocyte number": 2.18}
{"compound": "C=CCN1CC[C@]23CCCC[C@H]2[C@H]1Cc1ccc(O)cc13", "note": "[Levallorphan tartrate]", "MBP+ mature oligodendrocyte number": -1.77}
{"compound": "CN(C)C(=O)Oc1ccc[n+](C)c1", "note": "[Pyridostigmine Bromide]", "MBP+ mature oligodendrocyte number": -0.917}
{"compound": "CN(C)C(=O)Oc1ccc[n+](C)c1", "note": "[Pyridostigmine bromide]", "MBP+ mature oligodendrocyte number": 0.824}
{"compound": "CN1CCN(c2nc3ccccc3nc2Cl)CC1", "MBP+ mature oligodendrocyte number": -2.59}
{"compound": "CCN1CC2(OC(=O)c3ccccc3NC(C)=O)CCC(OC)C34C1C(CC23)C1(O)CC(OC)C2CC4C1(O)C2OC", "note": "(stereo not given) [Lappaconite HBr]", "MBP+ mature oligodendrocyte number": 0.619}
{"compound": "Cc1ccc2c(c1)C1(CCN(CCc3nc(-c4ccccc4)oc3C)CC1)OC(=O)N2", "MBP+ mature oligodendrocyte number": -2.6}
{"compound": "C[C@@]12C(=O)OC(=O)[C@]1(C)[C@H]1CC[C@@H]2O1", "note": "[Cantharidin]", "MBP+ mature oligodendrocyte number": -3.3}
{"compound": "CCC1(C)CC(=O)NC(=O)C1", "note": "[Bemegride]", "MBP+ mature oligodendrocyte number": 3.45}
{"compound": "Cc1ccccc1-n1c(Cn2ncc3c(N)ncnc32)nc2cccc(C)c2c1=O", "MBP+ mature oligodendrocyte number": 1.18}
{"compound": "COc1cc(OC)c(OC)cc1C=O", "note": "[Asaraldehyde]", "MBP+ mature oligodendrocyte number": -0.892}
{"compound": "NC(CP(=O)(O)O)C(=O)O", "note": "(racemic) [(±)-2-Amino-3-phosphonopropionic acid]", "MBP+ mature oligodendrocyte number": -0.000818}
{"compound": "NC1CCc2cc(O)c(O)cc2C1", "note": "(stereo not given) [6,7-ADTN hydrobromide]", "MBP+ mature oligodendrocyte number": -1.54}
{"compound": "OC(c1ccccc1)(c1ccccc1)C1CCNCC1", "note": "[Azacyclonol]", "MBP+ mature oligodendrocyte number": -1.56}
{"compound": "CCCC[N+]1(C)[C@@H]2C[C@@H](OC(=O)[C@H](CO)c3ccccc3)C[C@H]1[C@@H]1O[C@@H]12", "note": "(single isomer, unassigned; (-)) [Butylscopolamine Bromide]", "MBP+ mature oligodendrocyte number": 3.92}
{"compound": "CCCC[N+]1(C)[C@@H]2C[C@@H](OC(=O)[C@H](CO)c3ccccc3)C[C@H]1[C@@H]1O[C@@H]12", "note": "(single isomer, unassigned; (-)) [(-)-Scopolamine,n-Butyl-, bromide]", "MBP+ mature oligodendrocyte number": -0.925}
{"compound": "c1ccc2sc(C3(N4CCCCC4)CCCCC3)cc2c1", "note": "[BTCP hydrochloride]", "MBP+ mature oligodendrocyte number": -0.865}
{"compound": "N#C/C(=C\\c1ccc(O)c(O)c1)C(N)=S", "note": "[Tyrphostin 47]", "MBP+ mature oligodendrocyte number": 1.07}
{"compound": "COc1ccc(OC)c(C(O)C(C)N)c1", "note": "(stereo not given) [Methoxamine hydrochloride]", "MBP+ mature oligodendrocyte number": -0.872}
{"compound": "Cc1sc2c(c1C)C(c1ccc(Cl)cc1)=N[C@@H](CC(=O)OC(C)(C)C)c1nnc(C)n1-2", "MBP+ mature oligodendrocyte number": "< -6.35"}
{"compound": "C[C@@H]1O[C@@H](O[C@H]2C[C@@H](O)[C@]3(CO)[C@H]4[C@H](O)C[C@]5(C)[C@@H]([C@@H]6COC(=O)C6)CC[C@]5(O)[C@@H]4CC[C@]3(O)C2)[C@H](O)[C@H](O)[C@H]1O", "note": "[Dihydroouabain]", "MBP+ mature oligodendrocyte number": 2.86}
{"compound": "CCCN1CCO[C@@H]2c3cc(O)ccc3OC[C@H]21", "MBP+ mature oligodendrocyte number": 0.899}
{"compound": "Cc1ccc(-n2nccn2)c(C(=O)N2CCN(c3nc4cc(Cl)ccc4o3)CC[C@H]2C)c1", "note": "[Suvorexant (MK-4305)]", "MBP+ mature oligodendrocyte number": 8.26}
{"compound": "CCCCCCCCCCCCCCCC[n+]1ccccc1", "note": "[Cetylpyridinium Chloride]", "MBP+ mature oligodendrocyte number": -5.25}
{"compound": "CC(=O)OCC1=C(C(=O)[O-])N2C(=O)[C@@H](NC(=O)CCC[C@@H](N)C(=O)[O-])[C@H]2SC1.[Zn+2]", "note": "[Cephalosporin C zinc salt]", "MBP+ mature oligodendrocyte number": -0.943}
{"compound": "CN1C(=O)CCS(=O)(=O)C1c1ccc(Cl)cc1", "note": "(stereo not given) [Chlormezanone]", "MBP+ mature oligodendrocyte number": "-0.269 ± 0.61"}
{"compound": "c1ccc2c(c1)sc1ccccc12", "note": "[Dibenzothiophene]", "MBP+ mature oligodendrocyte number": 4.55}
{"compound": "O=P1(N(CCCl)CCCl)NCCCO1", "note": "(stereo not given) [Cyclophosphamide monohydrate]", "MBP+ mature oligodendrocyte number": -1.53}
{"compound": "O=C(O)Cc1cnc[nH]1", "note": "[Imidazole-4-acetic acid hydrochloride]", "MBP+ mature oligodendrocyte number": -2.27}
{"compound": "O=C(O)[C@@H]1CCN1", "note": "[L-azetidine-2-carboxylic acid]", "MBP+ mature oligodendrocyte number": -0.865}
{"compound": "COc1ccc2c(c1OC)C(=O)OC2C1c2cc3c(cc2CCN1C)OCO3", "note": "(single isomer, unassigned; (+)) [(+)-Hydrastine]", "MBP+ mature oligodendrocyte number": 1.13}
{"compound": "O=C1C=CC(=O)C=C1", "note": "[p-Benzoquinone]", "MBP+ mature oligodendrocyte number": -2.36}
{"compound": "CC1=NN=C(c2ccc(N)cc2)c2cc3c(cc2C1)OCO3", "MBP+ mature oligodendrocyte number": 2.44}
{"compound": "C[C@]12C/C(=C/O)C(=O)C[C@@H]1CC[C@@H]1[C@@H]2CC[C@@]2(C)[C@H]1CC[C@]2(C)O", "note": "[Oxymetholone]", "MBP+ mature oligodendrocyte number": -0.945}
{"compound": "C[C@H]1CNCCc2ccc(Cl)cc21", "note": "[Lorcaserin HCl]", "MBP+ mature oligodendrocyte number": 5.9}
{"compound": "C=C1C[C@@H]2[C@H](CC[C@]3(C)C(=O)CC[C@@H]23)[C@@]2(C)C=CC(=O)C=C12", "note": "[Exemestane]", "MBP+ mature oligodendrocyte number": -3.47}
{"compound": "CC(=O)c1c(O)c(C)c(O)c(Cc2c(O)c3c(c(C(=O)/C=C/c4ccccc4)c2O)OC(C)(C)C=C3)c1O", "note": "[Rottlerin]", "MBP+ mature oligodendrocyte number": -1.5}
{"compound": "CC(=O)[C@H]1CC[C@H]2[C@@H]3CC[C@H]4C[C@H](O)CC[C@]4(C)[C@H]3C(=O)C[C@]12C", "note": "[5alpha-Pregnan-3alpha-ol-11,20-dione]", "MBP+ mature oligodendrocyte number": 0.265}
{"compound": "c1ccc(C[N+]23CN4CN(CN(C4)C2)C3)cc1", "note": "[Roslin 2]", "MBP+ mature oligodendrocyte number": -1.53}
{"compound": "COc1ccccc1N1CCNCC1", "note": "[1-(2-Methoxyphenyl)piperazine hydrochloride]", "MBP+ mature oligodendrocyte number": 0.253}
{"compound": "CCCN1CCC[C@@H]2Cc3n[nH]cc3C[C@H]21", "note": "[(-)-Quinpirole hydrochloride]", "MBP+ mature oligodendrocyte number": -1.21}
{"compound": "CC(C)c1cccc(C(C)C)c1O", "note": "[Propofol]", "MBP+ mature oligodendrocyte number": 0.764}
{"compound": "OCc1cnc[nH]1", "note": "[4-Imidazolemethanol hydrochloride]", "MBP+ mature oligodendrocyte number": 0.607}
{"compound": "O=C(O)CC[N+](=O)[O-]", "note": "[3-Nitropropionic acid]", "MBP+ mature oligodendrocyte number": -1.66}
{"compound": "CN1C[C@H](CNC(=O)OCc2ccccc2)C[C@@H]2c3cccc4c3c(cn4C)C[C@H]21", "note": "[Metergoline]", "MBP+ mature oligodendrocyte number": "< -3.97"}
{"compound": "O=[N+]([O-])c1ncc[nH]1", "note": "[Azomycin]", "MBP+ mature oligodendrocyte number": 2.3}
{"compound": "C[C@]12CC[C@H](O)CC1=CC[C@@H]1[C@@H]2CC[C@]2(C)C(=O)CC[C@@H]12", "note": "[Dehydroepiandrosterone (DHEA)]", "MBP+ mature oligodendrocyte number": 0.283}
{"compound": "Cc1cc([C@@H]2CCCN2C)on1", "note": "[ABT-418 hydrochloride]", "MBP+ mature oligodendrocyte number": -0.786}
{"compound": "CC[C@@H](CO)NC(=O)[C@@H]1C=C2c3cccc4c3c(cn4C)C[C@H]2N(C)C1", "note": "[Methysergide maleate]", "MBP+ mature oligodendrocyte number": -0.559}
